# Measurements reported in the supplement of paper PMC3334620.
# In all, about 33,000 sequences were measured (“E-score (-0.5 to 0.5)”: median about -0.041, highest 2% from about 0.37 on). The list shows a part of the results.
# Target: T1, Ecm22 (UniProt Q05958)
# T1 sequence: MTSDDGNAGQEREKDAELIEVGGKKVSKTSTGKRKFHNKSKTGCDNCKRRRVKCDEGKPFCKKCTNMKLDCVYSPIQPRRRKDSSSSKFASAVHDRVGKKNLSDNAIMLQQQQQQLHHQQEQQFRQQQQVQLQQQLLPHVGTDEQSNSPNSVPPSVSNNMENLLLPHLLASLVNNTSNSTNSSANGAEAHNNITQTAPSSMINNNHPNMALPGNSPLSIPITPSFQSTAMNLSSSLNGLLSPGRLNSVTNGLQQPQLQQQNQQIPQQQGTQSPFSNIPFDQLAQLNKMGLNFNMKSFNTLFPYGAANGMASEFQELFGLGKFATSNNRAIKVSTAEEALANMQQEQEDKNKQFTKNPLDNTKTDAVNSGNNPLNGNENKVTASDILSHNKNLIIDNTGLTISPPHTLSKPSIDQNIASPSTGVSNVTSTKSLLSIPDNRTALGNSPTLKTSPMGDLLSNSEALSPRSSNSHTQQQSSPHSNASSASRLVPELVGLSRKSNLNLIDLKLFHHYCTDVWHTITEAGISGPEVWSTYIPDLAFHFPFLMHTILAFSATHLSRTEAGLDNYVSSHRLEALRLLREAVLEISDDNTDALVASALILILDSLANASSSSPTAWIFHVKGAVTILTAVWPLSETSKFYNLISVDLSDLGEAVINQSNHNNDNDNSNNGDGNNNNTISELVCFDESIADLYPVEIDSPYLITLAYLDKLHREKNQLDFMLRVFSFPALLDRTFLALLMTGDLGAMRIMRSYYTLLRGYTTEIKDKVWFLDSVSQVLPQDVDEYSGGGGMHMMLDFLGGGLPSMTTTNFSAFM
# Assay: PBM E-score (8-mer binding enrichment) (E-score (-0.5 to 0.5)); higher = stronger / more preferred TF binding; most listed sequences are background and not binding sites
# Settings: protein concentration: 200 nM; construct: GST-full length
# Summary of the method: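 Detection of bound protein used fluorescent anti-GST, with scans normalised by masliner. The proteins were GST-tagged yeast transcription factors applied at about 100-200 nM to universal all-10-mer Agilent arrays made double-stranded by primer extension. Each ungapped eight-base word, pooled with its reverse complement, was scored with an E-score from the Universal PBM Analysis Suite.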
row,Sequence,PBM E-score
1,CATACGCG,0.269
2,ATGCGGCC,-0.082
3,GTCAGACA,-0.161
4,TCTAACAA,-0.0866
5,TCCCGGCA,-0.0828
6,CCAATCAC,0.0721
7,CAAGAAAG,-0.029
8,CCACCCCC,-0.252
9,CTTGTATA,-0.0567
10,AGGAACCA,-0.167
11,GTCTGTGA,-0.0168
12,AGTACTGC,-0.0559
13,ATGTGCTG,-0.121
14,AGCCCTGA,-0.316
15,AGGAATCA,-0.0892
16,CCTTTGCG,0.0545
17,AATTCTAT,-0.104
18,GGCCCGTA,0.295
19,ACTGAATC,-0.0645
20,GAGTCGTA,0.43
21,GTTGTGTA,0.158
22,CTTCACCA,-0.258
23,ACACTCAG,-0.0964
24,AGGAAATA,0.108
25,TGTCAAAA,-0.124

row,Sequence,PBM E-score
1,ACAGTGTC,0.00024
2,CACTTCCC,-0.128
3,ATTTTGGA,-0.0949
4,AATTGTAT,-0.0868
5,AAAAAAGG,-0.119
6,CTGAAATC,-0.0402
7,CTCTAGGA,-0.3
8,CAGGACAA,0.0683
9,GAAAATCA,0.08
10,CCGGCCGC,-0.348
11,CCGTACGA,0.445
12,CCCACGTA,0.0287
13,AGTCATGC,0.0199
14,GTGGGCGA,-0.205
15,GTATTCGA,0.118
16,ACGGATCT,0.0941
17,CCGGAGAC,0.071
18,ATAGAACC,-0.199
19,CAGAGGAC,-0.085
20,ACTAGTAT,0.0326
21,ACAGACCA,-0.0504
22,GCGTTGTA,0.0998
23,CCATGAAA,-0.132
24,CTAGCCAC,-0.257
25,AGCTACGC,0.141

row,Sequence,PBM E-score
1,TAAAGAAA,0.00425
2,ACGTTAGG,-0.0037
3,ACGAACGC,0.362
4,CGCGGATA,0.188
5,ACTGAAAA,0.105
6,ATCACCAG,-0.103
7,GGTAGTCA,-0.205
8,CTTCTCTC,0.0461
9,ACGCCTCG,0.263
10,CTTAGCTA,-0.139
11,ACAAGGGT,-0.0591
12,AGTAGCAC,-0.138
13,TCATGGAA,-0.00955
14,GGAACTCA,-0.183
15,TCATAGGA,-0.0828
16,AAGGATAG,-0.184
17,CTGACCGC,0.024
18,ACATGGGT,-0.17
19,ACCTTTGA,-0.207
20,ATCCTCAA,-0.151
21,ATTACGCG,0.0777
22,ACGTCATG,0.0391
23,ACCAGCGA,-0.0336
24,CGGGTAAC,0.181
25,GCAATCGA,-0.0333

row,Sequence,PBM E-score
1,CAGCCGCA,0.0726
2,GAATTCAC,0.0616
3,GTATCCAA,0.0998
4,CCATGTGA,-0.191
5,CACCGGAA,0.151
6,CTCGTTGA,0.277
7,TCCAATCA,-0.115
8,AAATTAGA,-0.08
9,GAAAGTCC,-0.254
10,ATTGACAG,-0.041
11,GGTACTAC,0.0611
12,CTTCGGGC,-0.0609
13,AGTGGCAT,0.0357
14,CCACTAAG,-0.13
15,CGCAGTTC,0.17
16,AGTAGCCC,-0.197
17,GCGAAGCA,0.0616
18,AGATTTTA,-0.266
19,GGAGGACC,-0.252
20,TATTGGGA,-0.0384
21,CCCGATTA,0.0805
22,CACCGATG,-0.00617
23,AGACTCAG,-0.118
24,AGGACTGC,-0.252
25,CTGCACAG,-0.0509

row,Sequence,PBM E-score
1,AGGGATGG,-0.051
2,TAGCTAAA,0.0517
3,GGGAAGAC,-0.053
4,CGGACTAA,-0.0219
5,AGTTTTGC,0.0511
6,ACGACGCA,0.412
7,AATCCCCA,-0.177
8,CACACCAG,-0.165
9,CGATATCA,0.171
10,CACCGTCC,-0.114
11,GCCGGTGA,-0.168
12,AATCGCCG,0.121
13,CCGACACA,-0.00241
14,ATTATATA,0.134
15,AGGCCGCA,-0.0419
16,TCGCTAAA,0.34
17,AGGTCCAT,-0.239
18,CACTCACA,-0.0277
19,ACTGTTCA,-0.159
20,AGTAACGA,0.311
21,AGGAACTC,-0.0377
22,GACACATA,-0.0529
23,AAGCGACA,0.23
24,CGCTTGAG,-0.0735
25,AACGCAGC,0.113

row,Sequence,PBM E-score
1,AAGGTAGT,-0.0862
2,AGATAAAA,-0.0871
3,AATTTCGT,0.29
4,GCATGTAA,-0.053
5,AGCCTGAC,-0.171
6,ACCTCTCT,-0.148
7,ATCAGGCA,-0.213
8,GATACCCA,-0.0895
9,AACGCTCC,-0.155
10,GACCCACC,-0.194
11,AAAGTGAT,-0.0608
12,CACATTAA,-0.141
13,TAGATCAA,0.107
14,CAATCTGG,-0.231
15,GCACGATA,0.0343
16,AAAGCGTA,0.146
17,ACTAAAGC,-0.0525
18,ACTCATCC,-0.0429
19,AAACAGCC,-0.158
20,ATGATTGG,-0.233
21,GCTACGAA,0.429
22,CGTCCGGA,-0.21
23,ACGTCTAT,-0.142
24,CCTGGGCA,-0.254
25,ATTAAGCG,0.266

row,Sequence,PBM E-score
1,CACGTATA,0.386
2,CATCGGAC,0.0621
3,AAATCTGA,-0.168
4,AGCTATGA,0.0234
5,GCGGTGAA,-0.0243
6,TAACCTCA,-0.0217
7,GGCAAACC,-0.181
8,AGCGTTCA,-0.121
9,CATACCTC,0.0614
10,GGACTCCA,-0.272
11,AGAAAACG,0.16
12,CCCCATGA,-0.278
13,ACCATCCA,-0.275
14,CCATCAAG,-0.0429
15,GACTGGGA,-0.145
16,GACAGGGC,0.0528
17,ATAGCGAG,0.158
18,CTCCCAAC,-0.151
19,AGGTCAAA,-0.147
20,CTCGTCGC,0.174
21,ACTCAGCA,-0.236
22,GGTTGCTA,-0.165
